Experimental data reported in PubChem BioAssay AID488969 (Vanderbilt High Throughput Screening Facility, 2010).
In all, about 110,000 compounds were measured (“z-score”: median about -0.1, highest 2% from about 2 on). This is one part of the list.

Each molecule was assayed against Metabotropic glutamate receptor 8 (Rattus norvegicus) (UniProt P70579) (assay: rat mGluR8 modulators via GIRK flux, primary screen, cell-based, thallium flux, HTS (AID 488969)). Details: HEK293 rat mGluR8, GIRK (G protein-gated inwardly rectifying potassium channel) thallium flux, FluoZin2; at 10 µM; stronger effect = higher value; submaximal glutamate (EC20) added with thallium.
UniProt P70579, sequence (P70579 whole entry, looked up): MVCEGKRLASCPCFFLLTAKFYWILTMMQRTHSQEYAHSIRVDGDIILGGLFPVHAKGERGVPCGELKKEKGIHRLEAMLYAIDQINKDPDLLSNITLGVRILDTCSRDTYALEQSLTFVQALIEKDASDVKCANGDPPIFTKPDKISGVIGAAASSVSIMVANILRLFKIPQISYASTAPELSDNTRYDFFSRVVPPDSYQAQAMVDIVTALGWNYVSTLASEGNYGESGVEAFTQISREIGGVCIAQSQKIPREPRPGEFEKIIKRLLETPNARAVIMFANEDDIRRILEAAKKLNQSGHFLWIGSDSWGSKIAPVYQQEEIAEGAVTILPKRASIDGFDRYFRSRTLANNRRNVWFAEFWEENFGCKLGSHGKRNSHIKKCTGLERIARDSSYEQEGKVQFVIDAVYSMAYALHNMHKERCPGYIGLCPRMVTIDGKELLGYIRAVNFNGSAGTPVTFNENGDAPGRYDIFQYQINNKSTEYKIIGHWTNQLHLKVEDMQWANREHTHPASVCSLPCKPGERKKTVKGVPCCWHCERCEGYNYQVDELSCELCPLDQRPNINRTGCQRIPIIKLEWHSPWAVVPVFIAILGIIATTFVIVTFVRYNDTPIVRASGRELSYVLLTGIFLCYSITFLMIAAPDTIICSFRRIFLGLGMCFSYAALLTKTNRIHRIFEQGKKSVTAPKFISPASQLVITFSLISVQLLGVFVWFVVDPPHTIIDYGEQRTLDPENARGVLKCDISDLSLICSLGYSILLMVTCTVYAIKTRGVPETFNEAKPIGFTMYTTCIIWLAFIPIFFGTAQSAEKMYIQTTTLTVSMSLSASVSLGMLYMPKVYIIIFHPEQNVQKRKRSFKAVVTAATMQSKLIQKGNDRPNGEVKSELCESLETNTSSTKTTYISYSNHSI

SMILES	z-score
Cc1ccc(NC(=O)c2cc(NC(=O)c3ccco3)ccc2N2CCOCC2)cc1Cl	-0.192
C=CCOC(=O)C1=C(C)Nc2nnnn2C1c1cccs1 (stereo not drawn)	-1.38
COC(=O)c1ccc2c(c1)nc(C)n2CCO	-0.0312
CC(=O)c1ccc(NC2OC(C)C(O)C(O)C2O)cc1 (stereo not drawn)	0.292
COC(=O)c1sccc1NC(=O)c1ccc(OC)c(OC)c1	-0.0665
CCOC(=O)Cc1cc(=O)n2[nH]c(C)c(-c3ccc(Cl)cc3)c2n1	0.263
CCOC(=O)C(NC(C)=O)(OCc1ccc(F)cc1)C(F)(F)F (stereo not drawn)	0.158
CCc1c(C)nc(Nc2nc(C)c3cc(OC)ccc3n2)[nH]c1=O	-0.364
CC(=O)c1nn(-c2cccc(Br)c2)cc1C(=O)c1ccc(Br)cc1	0.113
COc1ccc(C(C(=O)NC(C)(C)C)N(C(=O)CNC(=O)c2cccs2)c2ccc(C)cc2)cc1OC (stereo not drawn)	-0.0112
Cn1c(=O)c2c(nc(N3CCc4ccccc4C3)n2Cc2ccccc2F)n(C)c1=O	-0.552
COc1ccccc1CNC(=O)CSc1nc(N)c(C#N)c(-c2cccs2)c1C#N	-0.261
O=C(Nc1ccc(Cl)cc1Cl)c1n[nH]c(Cn2cncn2)n1	0.627
COc1ccc(-c2ccc(-c3nc4c(c(=O)[nH]c(=O)n4Cc4ccccc4)n3C)o2)c([N+](=O)[O-])c1	-0.405
COc1ccc(NC(=O)/C(C#N)=C/c2ccc(OCc3ccccc3F)cc2)cc1	-0.0251
O=C(Nc1cccc(C(F)(F)F)c1)c1ccc2nc(-c3ccco3)c(-c3ccco3)nc2c1	0.234
CCN(CC)c1ccc(/C=N/N2CCN(Cc3cccc4ccccc34)CC2)c(O)c1	-0.00408
CC(C)c1ccc(NC(=O)CSc2nnc(-c3ccccn3)n2C)cc1	0.204
CC(C)OCCCNC(=O)C1CCC(=O)N1C1CCCC1 (stereo not drawn)	-0.382
CSc1ccc(S(=O)(=O)NCc2ccc(Cl)cc2Cl)cc1	-0.289
CC1(C)CC(CCNC(=O)c2ccc(-n3cnnn3)cc2)CC(C)(C)N1	0.34
CC1=CC(C)(C)N(C(=O)c2ccccc2)c2ccc(C)cc21	-0.576
CCCC1(CCC)NC(=O)N(CC(=O)c2cc(C)n(-c3ccc4c(c3)OCO4)c2C)C1=O	-0.0921
CCS(=O)(=O)Nc1ccc(C(=O)CC2(O)C(=O)Nc3ccccc32)cc1 (stereo not drawn)	-0.00986
Cc1cc(-n2c(C)cc(C(=O)CN3C(=O)NC4(CCCCC4C)C3=O)c2C)no1 (stereo not drawn)	-1.1
CC(=O)NCc1ccc(S(=O)(=O)N/N=C/c2ccc(Br)cc2)cc1	-0.289
COCCOC(=O)C1=C(C)NC2=C(C(=O)CC(C)(C)C2)C1c1cc2c(cc1Br)OCO2 (stereo not drawn)	-0.102
CC(=O)C1=C(c2ccccc2)NC(=O)NC1c1ccccc1OCC#N (stereo not drawn)	1.96
